Results: the supplement of paper PMC8728848
The list shows a part of the results.

Legend:
Test in all cases: glycan array binding signal (z-score within array); higher = stronger binding
Conditions in all cases: glycan notation: IUPAC condensed, linker removed
[1] = target: Man(a1-2)Man(a1-3)[Man(a1-2)Man(a1-6)]Man
Procedure, shortened: (§1)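 Arrays were curated from the Consortium for Functional Glycomics database, 3228 in total, and kept only where the protein sequence was available. Binding is expressed as a within-array Z-score. This score was averaged across arrays of the same protein sequence at different concentrations or buffers and across linkers, and negative values can be read as non-binding.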

[2] = target: Man(a1-2)Man(a1-3)[Man(a1-2)Man(a1-6)]Man(a1-6)[Man(a1-2)Man(a1-2)Man(a1-3)]Man
Procedure, shortened: as §1

[3] = target: Man(a1-2)Man(a1-3)[Man(a1-2)Man(a1-6)]Man(a1-6)[Man(a1-2)Man(a1-2)Man(a1-3)]Man(b1-4)GlcNAc(b1-4)GlcNAc
Procedure, shortened: as §1

[4] = target: Man(a1-2)Man(a1-3)[Man(a1-6)]Man(a1-6)[Man(a1-2)Man(a1-3)]Man(b1-4)GlcNAc(b1-4)GlcNAc
Procedure, shortened: as §1

[5] = target: Man(a1-2)Man(a1-6)[Man(a1-3)]Man(a1-6)[Man(a1-2)Man(a1-2)Man(a1-3)]Man
Procedure, shortened: as §1

[6] = target: Man(a1-2)Man(a1-6)[Man(a1-3)]Man(a1-6)[Man(a1-2)Man(a1-2)Man(a1-3)]Man(b1-4)GlcNAc(b1-4)GlcNAc
Procedure, shortened: as §1

Man(a1-3)[Man(a1-6)]Man = target: Man(a1-3)[Man(a1-6)]Man
Procedure, shortened: as §1

[7] = target: Man(a1-3)[Man(a1-6)]Man(a1-6)[Man(a1-2)Man(a1-3)]Man(b1-4)GlcNAc(b1-4)GlcNAc
Procedure, shortened: as §1

[8] = target: Man(a1-3)[Man(a1-6)]Man(a1-6)[Man(a1-3)]Man
Procedure, shortened: as §1

[9] = target: Man(a1-3)[Man(a1-6)]Man(a1-6)[Man(a1-3)]Man(b1-4)GlcNAc(b1-4)GlcNAc
Procedure, shortened: as §1

[10] = target: Man(a1-3)[Man(a1-6)]Man(b1-4)GlcNAc(b1-4)GlcNAc
Procedure, shortened: as §1

[11] = target: Man(a1-3)[Man(a1-6)]Man(b1-4)GlcNAc(b1-4)[Fuc(a1-6)]GlcNAc
Procedure, shortened: as §1

Man(a1-6)Man = target: Man(a1-6)Man
Procedure, shortened: as §1

Man(b1-4)GlcNAc = target: Man(b1-4)GlcNAc
Procedure, shortened: as §1

MurNAc(b1-4)GlcNAc = target: MurNAc(b1-4)GlcNAc
Procedure, shortened: as §1

Neu5Ac(a2-3)Gal = target: Neu5Ac(a2-3)Gal
Procedure, shortened: as §1

[12] = target: Neu5Ac(a2-3)Gal(b1-3)GalNAc
Procedure, shortened: as §1

[13] = target: Neu5Ac(a2-3)Gal(b1-3)GalNAc(b1-3)Gal(a1-4)Gal(b1-4)Glc
Procedure, shortened: as §1

[14] = target: Neu5Ac(a2-3)Gal(b1-3)GalNAc(b1-4)[Neu5Ac(a2-3)]Gal(b1-4)Glc
Procedure, shortened: as §1

[15] = target: Neu5Ac(a2-3)Gal(b1-3)GalNAc(b1-4)[Neu5Ac(a2-8)Neu5Ac(a2-3)]Gal(b1-4)Glc
Procedure, shortened: as §1

[16] = target: Neu5Ac(a2-3)Gal(b1-3)GalNAc6S
Procedure, shortened: as §1

[17] = target: Neu5Ac(a2-3)Gal(b1-3)GlcNAc
Procedure, shortened: as §1

[18] = target: Neu5Ac(a2-3)Gal(b1-3)GlcNAc(b1-2)Man
Procedure, shortened: as §1

[19] = target: Neu5Ac(a2-3)Gal(b1-3)GlcNAc(b1-2)Man(a1-3)[GlcNAc(b1-4)][Neu5Ac(a2-3)Gal(b1-3)GlcNAc(b1-2)Man(a1-6)]Man(b1-4)GlcNAc(b1-4)GlcNAc
Procedure, shortened: as §1

[20] = target: Neu5Ac(a2-3)Gal(b1-3)GlcNAc(b1-2)Man(a1-3)[Neu5Ac(a2-3)Gal(b1-3)GlcNAc(b1-2)Man(a1-6)]Man(b1-4)GlcNAc(b1-4)GlcNAc
Procedure, shortened: as §1

[21] = target: Neu5Ac(a2-3)Gal(b1-3)GlcNAc(b1-2)[Neu5Ac(a2-3)Gal(b1-3)GlcNAc(b1-4)]Man(a1-6)[Neu5Ac(a2-3)Gal(b1-3)GlcNAc(b1-2)Man(a1-3)]Man(b1-4)GlcNAc(b1-4)GlcNAc
Procedure, shortened: as §1

[22] = target: Neu5Ac(a2-3)Gal(b1-3)GlcNAc(b1-3)Gal(b1-3)GlcNAc
Procedure, shortened: as §1

[23] = target: Neu5Ac(a2-3)Gal(b1-3)GlcNAc(b1-3)Gal(b1-4)GlcNAc
Procedure, shortened: as §1

[24] = target: Neu5Ac(a2-3)Gal(b1-3)GlcNAc(b1-3)GalNAc
Procedure, shortened: as §1

[25] = target: Neu5Ac(a2-3)Gal(b1-3)GlcNAc(b1-4)Gal(b1-4)Glc
Procedure, shortened: as §1

[26] = target: Neu5Ac(a2-3)Gal(b1-3)GlcNAc(b1-6)GalNAc
Procedure, shortened: as §1

[27] = target: Neu5Ac(a2-3)Gal(b1-3)GlcNAc6S
Procedure, shortened: as §1

[28] = target: Neu5Ac(a2-3)Gal(b1-3)[Fuc(a1-4)]GlcNAc
Procedure, shortened: as §1

[29] = target: Neu5Ac(a2-3)Gal(b1-3)[Fuc(a1-4)]GlcNAc(b1-3)Gal(b1-3)[Fuc(a1-4)]GlcNAc
Procedure, shortened: as §1

[30] = target: Neu5Ac(a2-3)Gal(b1-3)[Fuc(a1-4)]GlcNAc(b1-3)Gal(b1-4)[Fuc(a1-3)]GlcNAc
Procedure, shortened: as §1

[31] = target: Neu5Ac(a2-3)Gal(b1-3)[GlcNAc(b1-6)]GalNAc
Procedure, shortened: as §1

[32] = target: Neu5Ac(a2-3)Gal(b1-3)[Neu5Ac(a2-6)]GalNAc
Procedure, shortened: as §1

[33] = target: Neu5Ac(a2-3)Gal(b1-3)[Neu5Ac(a2-6)]GlcNAc(b1-3)[Fuc(a1-3)[Gal(b1-4)]GlcNAc(b1-6)]Gal(b1-4)Glc
Procedure, shortened: as §1

[34] = target: Neu5Ac(a2-3)Gal(b1-3)]Neu5Ac(a2-3)Gal(b1-4)]GlcNAc
Procedure, shortened: as §1

Neu5Ac(a2-3)Gal(b1-4)Glc = target: Neu5Ac(a2-3)Gal(b1-4)Glc
Procedure, shortened: as §1

[35] = target: Neu5Ac(a2-3)Gal(b1-4)GlcNAc
Procedure, shortened: as §1

[36] = target: Neu5Ac(a2-3)Gal(b1-4)GlcNAc(b1-2)Man
Procedure, shortened: as §1

[37] = target: Neu5Ac(a2-3)Gal(b1-4)GlcNAc(b1-2)Man(a1-3)[GlcNAc(b1-4)][Neu5Ac(a2-3)Gal(b1-4)GlcNAc(b1-2)Man(a1-6)]Man(b1-4)GlcNAc(b1-4)GlcNAc
Procedure, shortened: as §1

[38] = target: Neu5Ac(a2-3)Gal(b1-4)GlcNAc(b1-2)Man(a1-3)[Neu5Ac(a2-3)Gal(b1-4)GlcNAc(b1-2)Man(a1-6)]Man(b1-4)GlcNAc(b1-4)GlcNAc
Procedure, shortened: as §1

[39] = target: Neu5Ac(a2-3)Gal(b1-4)GlcNAc(b1-2)Man(a1-3)[Neu5Ac(a2-3)Gal(b1-4)GlcNAc(b1-2)Man(a1-6)]Man(b1-4)GlcNAc(b1-4)[Fuc(a1-6)]GlcNAc
Procedure, shortened: as §1

B1: AFCNVH (Aspergillus fumigatus) (protein)
chain: MSLRGFHTTCDTIVLKDKHILSSRCKRPDGTYSFSEIDLNDCLGNNNGKFVWGGESFVDSASQVNLALEGGEGRPMLHAQLNDWHGSVQSASVNLGECIQNEAGGLEYMHC
glycan array binding signal (z-score) [1]: -0.474 | glycan array binding signal (z-score) [2]: -0.214 | glycan array binding signal (z-score) [3]: -0.336 | glycan array binding signal (z-score) [4]: -0.503 | glycan array binding signal (z-score) [5]: -0.295 | glycan array binding signal (z-score) [6]: -0.329 | glycan array binding signal (z-score) (Man(a1-3)[Man(a1-6)]Man): -0.297 | glycan array binding signal (z-score) [7]: -0.136 | glycan array binding signal (z-score) [8]: -0.135 | glycan array binding signal (z-score) [9]: -0.432 | glycan array binding signal (z-score) [10]: -0.448 | glycan array binding signal (z-score) [11]: -0.514 | glycan array binding signal (z-score) (Man(a1-6)Man): -0.497 | glycan array binding signal (z-score) (Man(b1-4)GlcNAc): -0.3 | glycan array binding signal (z-score) (MurNAc(b1-4)GlcNAc): 2.02 | glycan array binding signal (z-score) (Neu5Ac(a2-3)Gal): -0.51 | glycan array binding signal (z-score) [12]: -0.39 | glycan array binding signal (z-score) [13]: -0.249 | glycan array binding signal (z-score) [14]: -0.416 | glycan array binding signal (z-score) [15]: -0.476 | glycan array binding signal (z-score) [16]: -0.435 | glycan array binding signal (z-score) [17]: -0.322 | glycan array binding signal (z-score) [18]: -0.278 | glycan array binding signal (z-score) [19]: -0.462 | glycan array binding signal (z-score) [20]: -0.377 | glycan array binding signal (z-score) [21]: -0.439 | glycan array binding signal (z-score) [22]: -0.367 | glycan array binding signal (z-score) [23]: 0.251 | glycan array binding signal (z-score) [24]: -0.385 | glycan array binding signal (z-score) [25]: -0.53 | glycan array binding signal (z-score) [26]: -0.367 | glycan array binding signal (z-score) [27]: -0.204 | glycan array binding signal (z-score) [28]: -0.018 | glycan array binding signal (z-score) [29]: -0.201 | glycan array binding signal (z-score) [30]: -0.305 | glycan array binding signal (z-score) [31]: -1.85 | glycan array binding signal (z-score) [32]: -0.331 | glycan array binding signal (z-score) [33]: -0.416 | glycan array binding signal (z-score) [34]: -0.242 | glycan array binding signal (z-score) (Neu5Ac(a2-3)Gal(b1-4)Glc): -0.399 | glycan array binding signal (z-score) [35]: -0.131 | glycan array binding signal (z-score) [36]: -0.453 | glycan array binding signal (z-score) [37]: 1.8 | glycan array binding signal (z-score) [38]: -0.032 | glycan array binding signal (z-score) [39]: -0.164
